From the supplement of paper PMC12217912
This is one part of the list. The full chains were built here from the parent and the listed change. Values near 0.05 are background.

B1: TEV protease; numbered along this chain (parent)
chain: MGESLFKGPRDYNPISSSICHLTNESDGHTTSLYGIGFGPFIITNKHLFRRNNGTLVVQSLHGVFKVKDTTTLQQHLVDGRDMIIIRMPKDFPPFPQKLKFREPQREERICLVTTNFQTKSMSSMVSDTSCTFPSGDGIFWKHWIQTKDGQCGSPLVSTRDGFIVGIHSASNFTNTNNYFTSVPKNFMELLTNQEAQQWVSGWRLNADSVLWGGHKVFMVKPEEPFQPVKEATQL

Variants of: B1
Experiment: raw area under fraction-flipped curve 0-4 h after induction (AUC4h, not background-subtracted), DNA-recorder readout of cleavage of the substrate (dimensionless); higher = more cleavage of the substrate by the protease variant
Conditions: temperature: 34 °C; time window: 0-4 h after rhamnose induction
Method: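 In vivo DNA recorder in E. coli TOP10(DE3) ΔrhaA at 34 °C. Each TEVp single-site mutant (parent TEVp 0) is paired with a single-site variant of the 7-mer TEVs (canonical ENLYFQ|S). The substrate sits between flexible linkers in a Bxb1-sfGFP-TEVs-SsrA fusion, so cleavage stabilises Bxb1 and speeds flipping of a recombination array, read by NGS. The value is the raw area under the fraction-flipped curve over 0-4 h after rhamnose induction (AUC4h), with ≥20 reads per time point. It is not background-subtracted; inactive controls average about 0.047.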
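Further: Bxb1 expression induced with 0.2% (w/v) L-rhamnose at OD600 near 0.5, cultures sampled hourly, flipped fraction per protease–substrate barcode pair counted by paired-end Illumina sequencing.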

Variant	area with substrate ENAYFQS	area with substrate ENDYFQS	area with substrate ENFYFQS	area with substrate ENGYFQS	area with substrate ENHYFQS	area with substrate ENKYFQS	area with substrate ENPYFQS	area with substrate ENQYFQS	area with substrate ENRYFQS	area with substrate ENSYFQS	area with substrate ENVYFQS	area with substrate ENCYFQS	area with substrate ENEYFQS	area with substrate ENNYFQS	area with substrate ENYYFQS	area with substrate ENIYFQS	area with substrate ENMYFQS	area with substrate ENTYFQS	area with substrate ENWYFQS
T176N	0.0635	0.0585	0.0681	0.0643	0.0639	0.0139	0.0513	0.0553	0.0774	0.0669	0.0685								
T176V	0.0427	0.0741			0.0678			0.0581				0.0577	0.0593	0.0385	0.0671				
Q197W	0.0455	0.0647	0.0617			0.0589	0.0754	0.0676	0.0585	0.0708	0.0846	0.0679	0.0509	0.0574	0.0693	0.08	0.0695	0.0403	0.0583
R204H	0.0547	0.0037	0.0689	0.054	0.0575	0.0644	0.0571	0.0596	0.0458	0.0958	0.0604	0.0664	0.0676	0.0653		0.118	0.0647	0.0638	
N177E	0.0565	0.0691	0.074	0.0693		0.0606	0.0536	0.0669	0.0662	0.0648	0.0654	0.0727	0.0645	0.0603	0.0648	0.0832	0.0701	0.0661	0.042
K216F	0.0463	0.0581		0.0612				0.0556	0.0614	0.0707		0.0778	0.0339	0.0585			0.057		
K216G	0.0413		0.0461		0.0465		0.0368	0.0365	0.0464	0.0506	0.0469	0.0376	0.0496	0.0327	0.0548	0.0607	0.0583		0.0576
Q198K	0.0628	0.0556		0.0779	0.0726	0.0633		0.059	0.0573	0.0686	0.0829	0.064	0.0669	0.0501		0.0999			
V200H	0.0658	0.0641	0.0503	0.0553	0.0588	0.0553		0.0377		0.055	0.0647	0.0557	0.0629		0.0682	0.0759	0.0647	0.123	0.0597
V200L	0.0434	0.0514	0.0961	0.0705				0.0811	0.0584	0.0483			0.0471			0.101	0.0701		
V200W	0.062								0.0505	0.0725	0.0552			0.0635			0.0614		
V200P	0.0481			0.0473					0.0929	0.069		0.0347	0.048	0.0593	0.0708	0.0442		0.0585	
D208S	0.0373		0.0503	0.0469		0.056		0.0583	0.0476	0.0729		0.0646		0.0571		0.106			
D208E	0.076	0.0585	0.0616		0.051		0.0579	0.0638	0.0733	0.0715	0.0604				0.0465	0.0913	0.043		
D208Q	0.0757	0.0551	0.0488	0.0605			0.0615	0.0565	0.0517	0.0571	0.0637	0.064	0.0491	0.0596		0.0704	0.0538	0.059	0.0072
D208K	0.0554		0.0495			0.0771				0.0694		0.0592							
T192Q	0.0914	0.0611	0.064	0.0552		0.0812	0.0744	0.0575	0.0556		0.0748	0.0672	0.0695	0.0816	0.0525	0.0308		0.0632	
T192V	0.0769			0.072			0.0536	0.0638				0.0751	0.0685	0.0503	0.0638			0.0682	0.0708
T192H	0.0608	0.0581	0.0708	0.0555		0.0862		0.0586		0.0642	0.0868		0.0616	0.0621		0.12	0.0787	0.056	
T192I	0.0731	0.0633	0.0597	0.0654	0.0609	0.067	0.0469	0.0608	0.0603	0.0556	0.0905	0.0632	0.0637	0.0597	0.066	0.0907	0.0836	0.0646	0.0678
P184C	0.0542			0.0583				0.0491	0.0589	0.0624		0.0702	0.0623	0.0645				0.0595	
P184N	0.0618	0.0613		0.0575	0.0751	0.0497	0.0551	0.0506		0.0647	0.0721	0.0473	0.053		0.051	0.0945	0.0707	0.0474	
P184S	0.0527	0.0545	0.0556	0.0538	0.0574	0.0656	0.0754	0.063	0.0618	0.0656	0.0661	0.0589	0.065	0.0531	0.0565	0.0646			
P184W	0.0466	0.0533	0.0206	0.0745	0.0526	0.045		0.0608	0.0544	0.0644		0.0632	0.0698	0.0507	0.0689			0.0728	
P184I	0.04	0.0512		0.0574		0.0582		0.0639	0.0674	0.0674	0.0566	0.0497	0.066	0.0566		0.0603	0.0705	0.0912	
P184L	0.0545	0.0666	0.061	0.0531	0.0583		0.0619	0.0578	0.0539	0.0586	0.0497	0.0538	0.0496		0.0596	0.0733	0.0512	0.0548	
P184V	0.0565	0.059	0.0549			0.0724	0.0563		0.0454		0.0795	0.0678	0.0527		0.0547			0.07	
